Test results reported in PubChem BioAssay AID488969 (Vanderbilt High Throughput Screening Facility, 2010).
The full ranking holds about 110,000 compounds; the median of “z-score” is about -0.1, and the highest 2% start at about 2. This is one part of the list. Activity calls are given as the source filed them.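 Rule for the calls: active = z-score in the third read window above 3 or below -3; inactive = the rest.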

Molecular target: Metabotropic glutamate receptor 8 (Rattus norvegicus) (UniProt P70579)
Test: mGluR8 Gi/Go-coupled signaling modulation – cell-based, rat, thallium flux, HTS, primary screen (AID 488969)
Conditions: HEK293 rat mGluR8, GIRK (G protein-gated inwardly rectifying potassium channel) thallium flux, FluoZin2; at 10 µM; stronger effect = higher value; submaximal glutamate (EC20) added with thallium

UniProt P70579, sequence (P70579 whole entry, looked up): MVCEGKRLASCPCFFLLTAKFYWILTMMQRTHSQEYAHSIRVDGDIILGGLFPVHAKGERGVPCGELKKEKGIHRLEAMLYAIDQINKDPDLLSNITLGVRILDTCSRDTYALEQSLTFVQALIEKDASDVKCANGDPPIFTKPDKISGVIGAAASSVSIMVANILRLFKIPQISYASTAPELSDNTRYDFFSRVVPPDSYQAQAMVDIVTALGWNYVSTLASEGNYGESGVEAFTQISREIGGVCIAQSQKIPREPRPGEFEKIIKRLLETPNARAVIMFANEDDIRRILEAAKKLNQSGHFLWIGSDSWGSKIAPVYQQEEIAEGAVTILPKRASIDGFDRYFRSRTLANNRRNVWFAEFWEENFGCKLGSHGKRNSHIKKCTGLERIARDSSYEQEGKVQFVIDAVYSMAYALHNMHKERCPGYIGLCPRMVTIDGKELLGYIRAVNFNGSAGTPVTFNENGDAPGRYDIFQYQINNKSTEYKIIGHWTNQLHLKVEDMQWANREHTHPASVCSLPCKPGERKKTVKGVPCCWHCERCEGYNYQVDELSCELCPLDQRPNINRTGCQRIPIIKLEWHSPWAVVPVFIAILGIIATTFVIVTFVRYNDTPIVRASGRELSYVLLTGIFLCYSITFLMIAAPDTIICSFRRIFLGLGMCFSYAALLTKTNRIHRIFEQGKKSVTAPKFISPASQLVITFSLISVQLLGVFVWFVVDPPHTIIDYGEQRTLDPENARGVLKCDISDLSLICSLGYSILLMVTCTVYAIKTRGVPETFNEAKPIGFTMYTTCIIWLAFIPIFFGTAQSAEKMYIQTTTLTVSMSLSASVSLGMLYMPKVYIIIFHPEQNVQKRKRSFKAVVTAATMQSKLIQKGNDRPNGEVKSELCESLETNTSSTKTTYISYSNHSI

Structure (SMILES) | z-score
Cc1nc(C)c(C(=O)NNS(=O)(=O)c2ccccc2)s1 | -0.159
CC(C)OC(=O)c1cc2c(ccn2C)n1CC(=O)N(Cc1ccccc1)c1ccc(F)cc1 | -0.00352
CCOc1ccc(-c2nnn(CC(=O)c3cc(OC)ccc3OC)n2)cc1 | 1.52
CNC(=O)c1sc(-c2ccccc2)nc1C | -0.396
COc1ccc(-c2nnn(CC(=O)c3ccc4c(c3)OCCO4)n2)cc1OC | -0.406
Cc1cccc(Cn2c(C(C)O)nc3ccccc32)c1 (stereo not drawn) | -0.101
COc1ccc(NC(=O)c2ccc(-n3cccn3)nc2)c(OC)c1 | -0.0705
Oc1ccccc1C=NCC(O)c1ccccc1 (stereo not drawn) | -0.103
CCC1CCCCN1Cc1ccc(OC)c(C)c1 (stereo not drawn) | 0.156
CC(C)n1c(SCC(=O)Nc2nc3c(s2)CCCC3)nc2c1c(=O)n(C)c(=O)n2C | -2.43
CCN(CC)c1nc2ccccc2[nH]1 | -0.16
CC(C)Sc1oc(-c2ccco2)nc1S(=O)(=O)c1ccc(F)cc1 | -0.504
COC(=O)CC(=O)CSc1nc(C)cc(C)c1C#N | -0.322
O=C(Nc1cccnc1)c1coc(=O)c2ccccc12 | 0.0661
N/C(=N\OC(=O)/C=C/c1ccccc1)c1ccccc1 | -0.187
COc1cccc(NC(=O)Cn2c(-c3cncs3)nc3ccccc32)c1 | -0.793
Cc1sc2nc(C3CC3)nc(SCC(=O)N3c4ccccc4CC3C)c2c1C (stereo not drawn) | -0.291
Cn1nc(-c2ccc(Cl)cc2)c2cc(C(=O)NCCCN3CCOCC3)sc21 | 0.386
COc1ccc(S(=O)(=O)Nc2ccc(O)c(Sc3ncn[nH]3)c2)cc1 | -0.259
O=C(Oc1cccc(Nc2ncnc3ccccc23)c1)c1ccccc1Cl | -0.889
CNC(=S)N/N=C/c1c(C)nn(-c2ccccc2)c1Cl | 0.653
CC(C)CNC(=S)NNC(=O)c1ccc2c(c1)OCO2 | -0.0533
O=C(O)Cn1cc2c(n1)CCCCC2 | -0.117
COc1ccc2c(c1)C=CC1(O2)N(CCO)c2ccccc2C1(C)C (stereo not drawn) | -0.194
Cc1nnc(NC(=O)c2ccc3c(c2)C(=O)N(CCC(C)C)C3=O)s1 | 0.243

Structure (SMILES) | z-score
CCOC(=O)C(NC(=O)N(C)C)(Nc1sc(C)c(CC)c1C#N)C(F)(F)F (stereo not drawn) | -0.268
CCOc1cc(CNc2ccc(OC)cc2)cc(Br)c1OCC(=O)NC(C)(C)C | 0.0402
CC(C)NC(=O)c1ccccc1S(=O)c1ccccc1C#N (stereo not drawn) | -0.193
COc1ccc(OC)c(S(=O)(=O)Nc2c(F)cccc2F)c1 | -0.268
Cc1ccc(/C=C/C(=O)Nc2cccc3ncccc23)o1 | -0.328
O=[N+]([O-])c1cccc2ccc(/C=C/c3cccc(Br)c3)nc12 | -0.182
O=C(Oc1cccc2ccccc12)c1ccncc1 | -0.635
Cc1ccc(S(=O)(=O)Nc2ccc(C(=O)OCC(=O)N(CCC#N)c3ccccc3)cc2)cc1C | -0.0779
Cc1cc(C)c2c(-n3cccc3)n[nH]c2n1 | -0.122
O=C(Nc1cccc(Cl)c1)c1ccc(NCC2CCCO2)c([N+](=O)[O-])c1 (stereo not drawn) | -0.232
Nc1nnnn1/N=C/c1ccco1 | -0.0269
O=C(c1c(O)c2ccccc2oc1=O)C1CCC1 | 0.111
O=C(COC(=O)CCC1CCCC1)Nc1ccc(Cl)cn1 | 0.0135
COc1ccc(C2CC(c3c(-c4ccccc4)c4cc(Cl)ccc4[nH]c3=O)=NN2S(C)(=O)=O)cc1 (stereo not drawn) | -0.172
O=C(O)c1cccc(NC(=O)C2C3C=CC(C3)C2C(=O)O)c1 (stereo not drawn) | -0.171
CCNC(=S)Nc1nc2c(cc1C(=O)OCC)CCCC2 | active: 8.73
COc1ccc(-n2c3c(cc(C(=O)Nc4ccc(C)cc4)c2=O)C(=O)CCC3)cc1 | 0.0839
COc1ccc(Nc2nc(C)cc(C)c2C(N)=O)cc1 | -0.148
COc1ccc2cnn(Cc3ccccc3)c(=O)c2c1OC | 0.037
O=C1CC(c2ccccc2)CC(O)=C1C=NCc1ccc(Cl)c(Cl)c1 (stereo not drawn) | 0.436
COc1cc(C=NCC2OCCc3ccccc32)cc(OC)c1 (stereo not drawn) | -0.22
O=C(NCc1ccncc1)Nc1ccc(Cl)cc1Cl | -0.3
O=C(Nc1ccccc1)c1ccc2c(c1)OCO2 | -0.0124
COc1ccc(CNc2n[nH]c(NCc3ccc(OC)c(OC)c3)n2)cc1OC | 0.13
C=CCN1C(=O)C(CC(=O)Nc2ccc(OC)cc2)N(Cc2ccco2)C1=S (stereo not drawn) | -0.16

Structure (SMILES) | z-score
COc1ccc(S(=O)(=O)N(CC(=O)O)c2ccccn2)cc1 | 1.42
COc1ccc(NS(=O)(=O)c2ccc(Br)s2)cc1OC | 2.11
CCCC(=O)OCCNc1cc(SCc2ccco2)c2nonc2c1[N+](=O)[O-] | 0.14
O=C(c1ccc(-n2cccc2)cc1)N1CCN(Cc2ccccc2)CC1 | -0.138
O=C(CN(C1CCCCC1)S(=O)(=O)c1ccc(F)cc1)NCc1ccncc1 | 0.0244
CCCCNC(=O)c1ccccc1NC(=O)CN(c1ccccc1)S(=O)(=O)N(C)C | 2.11
CCOC(=O)C(C)Sc1nnc(-c2c[nH]c3ccccc23)n1C (stereo not drawn) | active: 4.19
Cc1ccc(S(=O)(=O)NCCCNS(C)(=O)=O)cc1 | 0.0948
CCc1c(C)c2c(C)[nH]nc2oc1=O | -0.453
O=S(=O)(Cc1cc(Oc2ccccc2)nc(-c2ccccc2)n1)c1ccccc1 | -1.25
CCN(CC)S(=O)(=O)c1cc(NC(=O)Cn2cnc3ccccc3c2=O)ccc1C | active: 3.32
Cc1onc(-c2ccccc2)c1C(=O)NCC1COc2ccccc2O1 (stereo not drawn) | -0.111
COc1ccc(OC)c(/C=N/NC(=O)CCN2CCN(C(c3ccccc3)c3ccccc3)CC2)c1 | -0.329
CCN1C(=O)c2ccccc2S(=O)c2ccc(C(=O)N3CCCCCC3)cc21 (stereo not drawn) | -0.586
CCN1CCc2nc(NC(=O)C(c3ccccc3)c3ccccc3)sc2C1 | -0.647
O=C(O)CCCCC1SCC2NC(=O)NC21 (stereo not drawn) | -0.163
Cc1cccc(OCCCC(=O)Nc2ccccc2C(F)(F)F)c1 | -0.0942
Cc1ccc2c(c1)C=CC(C)(C)S2=O (stereo not drawn) | -0.163
CCOC(=O)C1C(c2cc(OC)c(OC)c(OC)c2)NC(=S)NC1(O)C(F)(F)F (stereo not drawn) | -0.494
O=C(CNC(=O)Cn1cnc2sc3c(c2c1=O)CCCC3)NCc1ccccn1 | 0.515
Cc1cccc(-c2n[nH]c(=S)n2Cc2ccccc2)c1 | 1.74
Cc1c(NC(=O)c2ncn[nH]2)cccc1-c1nc2ccccc2s1 | 0.173
CCC(N=c1cc(-c2ccc(OC)c(OC)c2)oc2ccc(C)cc12)C(=O)O (stereo not drawn) | -0.185
